In PubChem BioAssay AID1345082 (National Center for Advancing Translational Sciences (NCATS), 2018):
“And” between values parts separate entries of the source, which are not always exact repeats. Equal values may be shown once. In all, about 94,000 compounds went through this assay and about 4,000 (4.3%) were called active. The inconclusive results got no clear call from the source; some entries with a clear call stand among them for comparison. The call rests on the fitted dose curve; in most records, active means well fitted inhibition curve with a large enough effect; inconclusive means small, poorly fitted or top-dose-only effect; inactive means no such curve, though single readings can be large or run the other way. A potency beside an inconclusive call is a rough fit, not a confirmed value.

Assay: Cytotoxic Profiling in NIH 3T3 Cell Line of Diverse Libraries Using Quantitative High-Throughput Screening; further: nearly all actives have a fitted effect of over 55% in size
Details: NIH 3T3 viability, CellTiter-Glo ATP luminescence, 48-72 h; series mostly up to 96.7 µM
Procedure, shortened: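 Viability of NIH 3T3 cells after 48 or 72 hr compound treatment at 37 °C was assessed by CellTiter-Glo, with luminescence imaged following a 10 min room-temperature step.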
Potency means the concentration at half of the fitted maximal effect; tags describe the fitted curve by direction and shape.

With `O=C(NC1CCCN(c2cc(-c3ccccc3)[nH]n2)C1)c1cc(Cl)ccc1F` (centres undefined) as the compound, how does the Potency read?
Its Potency is inconclusive: 50.1 µM [inhibitor, partial curve, poor fit].

With `CC(=O)c1cccc(NC(=O)Cn2c(-c3ccc(Cl)cc3)nc(C)cc2=O)c1` as the compound, how does the Potency read?
The Potency was “inactive”.

For `O=C(Nc1cccnc1)c1ccc2c(c1)OCCN(c1cccc(OC(F)(F)F)c1)C2`, which Potency is on record?
The Potency was inconclusive: 17.8 µM [inhibitor, full curve, poor fit].

With `Cc1ccc(-c2nc(C(=O)NC(C)c3ccc(F)cc3)no2)cc1` (centres undefined) as the compound, how does the Potency read?
Its Potency is “inactive”.

Which Potency does the source give for `CC(C)Cc1nnc(NC(=O)C2CC(=O)N(c3n[nH]c4cccc(F)c34)C2)s1` (centres undefined) here?
Its Potency is inconclusive: 70.8 µM [inhibitor, partial curve, poor fit].

For `CC(C)(C)C(=O)Nc1nc2c(s1)C[C@@H]1[C@](C)(CO)[C@H](O)CC[C@@]1(C)[C@@H]2CC(=O)NCc1ccco1`, which Potency is on record?
Its Potency is inconclusive: 50.1 µM [inhibitor, partial curve, poor fit].

For `COCc1nc(C2CCN(C(=O)c3n[nH]c4ccccc34)C2)no1` (centres undefined), which Potency is on record?
Its Potency is “inactive”.

Which Potency does the source give for `COc1cc(-c2cc(C)c3cccc(OC)c3n2)cc2c1OCCN(C(=O)CCN)C2` here?
Its Potency is active: 89.1 µM.

Which Potency does the source give for `Cc1cccc(-n2nc(C)c(CCC(=O)NC3CC3)c2Oc2ccccc2C)c1` here?
The Potency was inconclusive: 50.1 µM [inhibitor, partial curve, poor fit].

Which Potency does the source give for `Cc1ccc([S+](=O)([O-])N2CCN(c3ccc4nnc(C)n4n3)CC2)cc1` here?
The Potency was inconclusive: 44.7 µM [inhibitor, partial curve, poor fit].

With `Cc1ncccc1-c1nc2cc(C(=O)N3CCOCC3)ccc2o1` as the compound, how does the Potency read?
The Potency was inconclusive: 39.8 µM [inhibitor, partial curve, poor fit].

For `CCOC(=O)[C@@H]1[C@@H](O)C(=O)N(Cc2ccccc2)C12CCN(C(=O)C(CC)CC)CC2`, which Potency is on record?
Its Potency is inconclusive: 70.8 µM [inhibitor, single point].

For `COc1ccccc1CNC(=O)c1ccc2c(c1)CC(=O)N2Cc1ccc(F)cc1`, which Potency is on record?
Its Potency is inconclusive: 44.7 µM [inhibitor, partial curve, poor fit].

For `CN(CCc1noc(C2CN(Cc3ccncc3F)C2)n1)C(=O)C1CC1`, which Potency is on record?
Its Potency is “inactive”.

Which Potency does the source give for `Cc1cc(OCC(=O)O)c(C)c2c1CC[C@@H]([C@H](C)C(=O)N1CCC(O)CC1)C2` here?
Its Potency is “inactive”.

Which Potency does the source give for `CC(C)CNC(=O)c1ccc2c(c1)NC(C)(COc1ccc3[nH]ccc3c1)CO2` (centres undefined) here?
The Potency was active: 89.1 µM.

With `C[C@H]1[C@@H]2[C@@H](O)C([C@H](C)C(=O)NCc3cc(F)cc(F)c3)CC[C@@]2(C)CC[C@@H]1NC(=O)c1cncnc1` (some centres undefined) as the compound, how does the Potency read?
The Potency was inconclusive: 50.1 µM [inhibitor, partial curve, poor fit].

For `Cc1nonc1C1CCCN1c1ccc(-c2nc(COc3ccccc3)no2)cn1` (centres undefined), which Potency is on record?
Its Potency is inconclusive: 14.1 µM [inhibitor, full curve].

For `COc1ccc(F)cc1-c1cccc(C(=O)NCC(=O)N2CCOCC2)c1`, which Potency is on record?
The Potency was inconclusive: 50.1 µM [inhibitor, partial curve, poor fit].

For `CC(C)CN1C(=O)CO[C@H](c2ccc(NC(=O)c3ccc(C(F)(F)F)cc3)cc2)[C@H]1CO`, which Potency is on record?
The Potency was inconclusive: 28.2 µM [inhibitor, partial curve].

For `COc1ccccc1Nc1ccnc(N2CCN(C(=O)c3ccccc3C)CC2)n1`, which Potency is on record?
The Potency was inconclusive: 63.1 µM [inhibitor, partial curve, poor fit].

For `N[C@@H]1CC[C@H](C(=O)NCc2csc(N3CCCC3)n2)C1`, which Potency is on record?
The Potency was inconclusive: 44.7 µM [inhibitor, partial curve, poor fit].

With `COCCN1Cc2ccc(NCC(C)C)nc2C(C)(C(=O)NC2CC2)C1` (centres undefined) as the compound, how does the Potency read?
The Potency was inconclusive: 56.2 µM [inhibitor, partial curve, poor fit].

For `Cc1nn(-c2ccccc2)c2c1C(C)N(C1CN(C(=O)NC3CCCC3)C1)C2=O` (centres undefined), which Potency is on record?
Its Potency is active: 28.2 µM.

For `COc1ccc(Cn2c(=O)c(C(=O)N3CCN([S+](=O)([O-])c4cccs4)CC3)nc3cccnc32)cc1`, which Potency is on record?
The Potency was “inactive”.

With `Cc1cc(Cl)ccc1-c1ccccc1CN` as the compound, how does the Potency read?
The Potency was active: 22.4 µM.

Which Potency does the source give for `O=C1CCN(S(=O)(=O)c2cccc(F)c2)CCCC(c2nc(-c3cccnc3)no2)CCN1` (centres undefined) here?
Its Potency is “inactive”.

Which Potency does the source give for `Cc1nnc([C@@H]2CC(F)(F)CN2C(=O)COc2ccccc2)o1` here?
Its Potency is “inactive”.

With `COCCCn1c(=O)c(C(=O)N2CCN(C(=O)c3cccc(OC)c3)CC2)nc2cccnc21` as the compound, how does the Potency read?
Its Potency is “inactive”.

With `CC(C)c1nnc(NC(=O)C2CC(=O)N(c3n[nH]c4cc(Br)ccc34)C2)s1` (centres undefined) as the compound, how does the Potency read?
Its Potency is inconclusive: 44.7 µM [inhibitor, partial curve, poor fit].

For `O=C(c1ccc(Cl)nc1)N1CCC(c2nn(Cc3ccccc3)c(=O)[nH]2)CC1`, which Potency is on record?
Its Potency is “inactive”.

Which Potency does the source give for `COc1ccnc(N2CCC(CO)(Cc3ccccc3C(F)(F)F)CC2)n1` here?
The Potency was inconclusive: 56.2 µM [inhibitor, partial curve, poor fit].

Which Potency does the source give for `CC(C)N[C@@H]1CO[C@H](CNC(=O)CC(C)(C)C)[C@H]1O` here?
Its Potency is “inactive”.

Which Potency does the source give for `CC(C)c1nc2c(c(-c3ccc(O)cc3)n1)CN(CC1CCCCC1)CC2` here?
The Potency was “inactive”.

Which Potency does the source give for `Cc1noc(C)c1CC(=O)N1CC[C@@H](NC(=O)c2cnccn2)[C@H](O)C1` here?
Its Potency is “inactive”.

For `Cc1ccc(NC(=O)N2CCC(CCNC(=O)CCC3CCCC3)CC2)cc1`, which Potency is on record?
The Potency was “inactive”.

With `Cc1ccc(NC(=O)CN2C(=O)NC3(CCCCC3)C2=O)c(Cl)c1` as the compound, how does the Potency read?
Its Potency is inconclusive: 50.1 µM [inhibitor, partial curve, poor fit].

Which Potency does the source give for `Cc1cc(Cl)ccc1NC1CN(C(=O)OC(C)(C)C)C1` here?
Its Potency is inconclusive: 112 µM [inhibitor, single point].

Which Potency does the source give for `C[C@]1(CO)[C@H]2Cc3sc(NC(=O)c4ccco4)nc3[C@@H](CC(=O)NC3CC3)[C@]2(C)CC[C@H]1O` here?
The Potency was “inactive”.

With `COc1cccc(N2C(=O)NC(=NC3CCCCC3)C23CCN(C(=O)c2ccc(C)cc2)CC3)c1` as the compound, how does the Potency read?
The Potency was inconclusive: 50.1 µM [inhibitor, partial curve, poor fit].

With `COc1ccccc1CN1C[C@@H](F)[C@@H](OCc2nc3ccccc3o2)C1` as the compound, how does the Potency read?
The Potency was inconclusive: 79.4 µM [inhibitor, partial curve].

For `COc1cccc(C(=O)N2CC(=O)N(CCOc3ccccc3)CC(O)C2)c1` (centres undefined), which Potency is on record?
The Potency was “inactive”.

With `N#Cc1ccc(C(=O)N2CCC(Cc3nc(C4CC4)n[nH]3)C2)cc1` (centres undefined) as the compound, how does the Potency read?
The Potency was inconclusive: 70.8 µM [inhibitor, single point].

Which Potency does the source give for `O=C1CC(c2ccccc2)N(Cc2ccncc2)CCCN(C(=O)CC2CCCCC2)CCN1` (centres undefined) here?
Its Potency is inconclusive: 50.1 µM [inhibitor, partial curve, poor fit].

Which Potency does the source give for `CC(C)c1noc(CC2CCN(C(=O)c3ccc(C(C)(C)C)cc3)CC2)n1` here?
The Potency was “inactive”.

Which Potency does the source give for `COc1ccc2cc(C3CN(C(=O)c4cccn4C)CCO3)ccc2c1` (centres undefined) here?
Its Potency is active: 39.8 µM.

For `CCOC(=O)[C@H]1C[C@]2(CCCCN(C)C2=O)N(C(=O)C2CC2)[C@H]1c1ccccc1`, which Potency is on record?
Its Potency is inconclusive: 70.8 µM [inhibitor, partial curve, poor fit].

With `O=C(C1CCN(Cc2ccccc2-c2cccnc2)CC1)N1CCC(c2ccccc2)CC1` as the compound, how does the Potency read?
The Potency was active: 44.7 µM.

Which Potency does the source give for `COCc1ccc2c(c1)c(OC(C)(C)C(=O)Nc1cccnc1)nn2Cc1ccccc1` here?
The Potency was inconclusive: 50.1 µM [inhibitor, partial curve, poor fit].

With `CN(C)C(=O)CCc1ccc2c(c1)CN(Cc1cn[nH]c1-c1ccc(F)cc1)CCO2` as the compound, how does the Potency read?
The Potency was inconclusive: 50.1 µM [inhibitor, partial curve, poor fit].

Which Potency does the source give for `Cc1cc(C)cc(C(=O)NCCn2ccn3nc(-c4ccc(C)cc4C)cc3c2=O)c1` here?
The Potency was inconclusive: 44.7 µM [inhibitor, partial curve, poor fit].

For `COc1nccc(N2CC[C@@](O)(C3CCOCC3)[C@H](C)C2)c1C#N`, which Potency is on record?
The Potency was “inactive”.

Which Potency does the source give for `C[S+](=O)([O-])c1cccc(-c2nccc3c(=O)cc(N4CCOCC4)oc23)c1` here?
The Potency was inconclusive: 22.4 µM [inhibitor, partial curve, poor fit].

For `Cn1nc2n(c1=O)CCC(N)CC2` (centres undefined), which Potency is on record?
The Potency was “inactive”.

For `COc1ccc(-c2cc(N3CCC(NC(=O)c4ccc(OC)cc4C)CC3)n[nH]2)cc1`, which Potency is on record?
The Potency was inconclusive: 35.5 µM [inhibitor, partial curve, poor fit].

For `O=c1[nH]c(N2CCOCC2)nc2c1CCN(Cc1ccc(F)cc1Cl)CC2`, which Potency is on record?
The Potency was “inactive”.

Which Potency does the source give for `O=C(CCC1CCCC1)N1CC(c2noc(COc3ccccc3)n2)C1` here?
The Potency was inconclusive: 50.1 µM [inhibitor, partial curve, poor fit].

For `Cc1ccc(CCNC(=O)c2cc3c(N4CCCC4)nc(C)cn3n2)cc1`, which Potency is on record?
The Potency was inconclusive: 70.8 µM [inhibitor, single point].

Which Potency does the source give for `CCc1nc2c(c(-c3ccc(O)cc3)n1)CCN(C(=O)c1ccccc1)CC2` here?
The Potency was “inactive”.

For `O=C(Cc1ccc(F)cc1)NC1CCN(c2ccc3nnc(-c4ccccc4)n3n2)C1` (centres undefined), which Potency is on record?
The Potency was inconclusive: 28.2 µM [inhibitor, full curve, poor fit].

With `Cc1noc(C)c1-c1cc2c(cc(C)n2CCN(C)C)c(-c2cccnc2)n1` as the compound, how does the Potency read?
Its Potency is inconclusive: 3.55 µM [inhibitor, full curve, poor fit].

For `COc1cccc(C(=O)NC2CCN(Cc3cccc(-c4cccs4)c3)CC2)c1`, which Potency is on record?
Its Potency is “inactive and inconclusive: 50.1 µM [inhibitor, partial curve, poor fit]”.

Which Potency does the source give for `COc1ccc(CNC(=O)CN2C(=O)C(c3ccccc3)=NC23CCCC3)cc1OC` here?
Its Potency is “inactive”.

With `O=C(CC1=C2CCCCC2N(Cc2ccc(F)cc2)C1=O)NCCc1c[nH]c2ccccc12` (centres undefined) as the compound, how does the Potency read?
Its Potency is inconclusive: 50.1 µM [inhibitor, partial curve, poor fit].
